Laboratory results as given in PubChem BioAssay AID602310 (National Center for Advancing Translational Sciences (NCATS), 2012).
About 310 (0.076%) of roughly 410,000 compounds were called active. The shares of active, inactive and inconclusive entries below differ from those in the screen. The call rests on the fitted dose curve; in most records, active means well fitted curve in the direction sought with a large enough effect; inconclusive means small, poorly fitted or top-dose-only effect; inactive means flat fitted curve, though single readings scatter. Potencies of inconclusive entries are doubtful fits and often do not repeat.
Further: nearly all actives have a fitted effect of over 60% in size.
Potency means the concentration at half of the fitted maximal effect; tags describe the fitted curve by direction and shape.

Each compound was assayed against DNA dC->dU-editing enzyme APOBEC-3G (Homo sapiens) (UniProt Q9HC16) (assay: qHTS for Inhibitors of Vif-A3G Interactions: qHTS). Conditions: HeLa A3G-eYFP + Vif (tagged APOBEC3G with the HIV-1 protein that degrades it), YFP fluorescence, overnight; series mostly up to 46.1 µM.
Sequence of UniProt Q9HC16 (Q9HC16 whole entry, looked up): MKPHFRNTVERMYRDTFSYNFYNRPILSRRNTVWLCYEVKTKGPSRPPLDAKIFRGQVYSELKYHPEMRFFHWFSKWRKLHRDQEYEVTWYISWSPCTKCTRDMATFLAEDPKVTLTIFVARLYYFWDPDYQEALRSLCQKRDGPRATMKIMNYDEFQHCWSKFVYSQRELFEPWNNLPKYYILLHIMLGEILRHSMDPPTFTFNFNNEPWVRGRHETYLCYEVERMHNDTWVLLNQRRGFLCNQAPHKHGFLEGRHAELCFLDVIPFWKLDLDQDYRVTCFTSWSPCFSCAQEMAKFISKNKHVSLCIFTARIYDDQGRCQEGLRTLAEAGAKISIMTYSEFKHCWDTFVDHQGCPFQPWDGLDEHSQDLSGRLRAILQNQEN
How it was run: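 Read-out is eYFP fluorescence (Ex 488/Em 500-530) from Vif-expressing HeLa A3G-eYFP cells; more signal means A3G escaped Vif-mediated degradation. Cells plated overnight, compound pinned in, incubated overnight at 37 deg C.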
In the case of COc1ccc(NC(=O)c2cc([N+](=O)[O-])ccc2N2CCCCC2)cc1, the Potency is reported as inconclusive: 22.4 µM [inhibitor, single point]. Cc1[nH]n(-c2ncc(-c3ccccc3)s2)c(=O)c1C(c1ccc(Br)cc1)C(C#N)C#N (configuration not stated) was tested, and the Potency was inconclusive: 22.4 µM [inhibitor, single point]. In the case of C#CCOCCOCCOCCNc1nc(N2CCN(C(=O)CCCCCCCCCCNC(=O)[C@H](CCCCN)n3cc(C)nn3)CC2)nc(N2CCN(C(=O)CCCCCCCCCCNC(=O)[C@@H]([C@H](C)O)n3cc(C)nn3)CC2)n1, the Potency is reported as inconclusive: 12.6 µM [inhibitor, single point]. In the case of COc1cccc(-c2cc(NC=O)c3ncc(-c4ccc(C(C)=O)cc4)n3c2)c1, the Potency is reported as inconclusive: 1.58 µM [inhibitor, partial curve, poor fit]. In the case of COCCCN=C1NN=C(c2cc(C)n(Cc3ccco3)c2C)CS1, the Potency is reported as inconclusive: 1.26 µM [inhibitor, full curve, poor fit]. With O=C1C(=Cc2cccn2-c2ccc(O)cc2)C(=O)c2ccccc21 the Potency was “inactive”. In the case of COc1ccc2c(c1)N(C)/C(=C/c1cccc[n+]1C)S2, the Potency is reported as active: 12.6 µM. For COc1ccc(OC)c(Nc2cc(C)nc3ccc(C)cc23)c1, the Potency was inconclusive: 5.01 µM [inhibitor, full curve, poor fit]. With O=C1Nc2ccc(Br)cc2C12NNc1ccccc1O2 (configuration not stated) the Potency was inconclusive: 17.8 µM [inhibitor, partial curve, poor fit]. With O=C(NCCc1c[nH]c2ccccc12)c1cc([N+](=O)[O-])cc([N+](=O)[O-])c1 the Potency was “inactive”. In the case of O=C(COc1ccc(Oc2ccccc2)cc1)NCc1cn2ccccc2n1, the Potency is reported as inconclusive: 2.82 µM [inhibitor, full curve, poor fit]. For CCc1c(C)nc(SCC(=O)c2ccc(C)c(C)c2)[nH]c1=O, the Potency was inconclusive: 35.5 µM [inhibitor, partial curve, poor fit]. For CC(=O)c1sc(N/N=C\c2ccccc2O)nc1C, the Potency was inconclusive: 11.2 µM [inhibitor, partial curve, poor fit]. In the case of COc1ccc(/C=N/NC(=O)c2[nH]nc3c2CCc2ccccc2-3)cc1OC, the Potency is reported as active: 3.16 µM. With Cc1ccccc1NC(=O)C(=Cc1ccc(C(=O)O)cc1)C(=O)Nc1ccccc1C the Potency was “inactive”. In the case of COc1cc(-c2cc(NC(C)=O)c3ncc(-c4ccc(C(C)=O)cc4)n3c2)cc(OC)c1OC, the Potency is reported as inconclusive: 22.4 µM [inhibitor, single point]. CCOc1ccccc1Oc1nc(C)nc2c1oc1ccccc12 was tested, and the Potency was inconclusive: 1.78 µM [inhibitor, full curve, poor fit]. CCN(CC)C1Oc2cc3c(cc2C(c2cccc(OC)c2O)C1C)OCO3 (configuration not stated) was tested, and the Potency was inconclusive: 10 µM [inhibitor, partial curve, poor fit]. CC(=O)Nc1cc(-c2ccc(CO)cc2)cn2c(-c3ccc(F)c(Cl)c3)cnc12 was tested, and the Potency was inconclusive: 22.4 µM [inhibitor, single point]. COC(=O)c1ccc2nc(-c3ccco3)c(Cc3ccc(OC)cc3C)n2c1 was tested, and the Potency was inconclusive: 20 µM [inhibitor, single point]. For Cc1ccc(Cl)cc1Nc1nn2c(=O)c3ccc(C(=O)NC(C)c4ccccc4)cc3nc2s1 (configuration not stated), the Potency was inconclusive: 6.31 µM [inhibitor, partial curve, poor fit]. For COc1ccc(C2=Nn3c(nnc3-c3ccccn3)SC2)cc1, the Potency was inconclusive: 25.1 µM [inhibitor, single point]. With Cn1c(=O)c2cc(NC(=O)CCc3ccccc3)ccc2n1-c1ccccc1F the Potency was inconclusive: 3.16 µM [inhibitor, full curve, poor fit]. In the case of CC(=C/C(=O)O)/C=C/c1ccco1, the Potency is reported as inconclusive: 31.6 µM [inhibitor, single point]. Cc1sc2ncnc(N3CCC(C(=O)NNC(=O)c4ccc(Cl)cc4)CC3)c2c1C was tested, and the Potency was “inactive”. With COc1cccc2cc(-c3nc4ccccc4[nH]3)c(=O)oc12 the Potency was “inactive”. With O=C(c1ccccc1)[C@@H]1[C@@H](C(=O)c2ccc(F)cc2)[C@@]2(C(=O)Nc3ccccc32)[C@H]2c3ccccc3C=CN12 the Potency was “inactive”. In the case of CNC(=O)c1c(NC(=O)c2ccc(S(=O)(=O)N(C)c3ccccc3)cc2)sc2c1CCN(C(C)C)C2, the Potency is reported as inconclusive: 6.31 µM [inhibitor, full curve, poor fit]. CCOc1ccc(Cn2c3ccc(OC)cc3c3nc4ccccc4nc32)cc1 was tested, and the Potency was inconclusive: 5.62 µM [inhibitor, single point]. With Cc1csc(=O)n1CC(=O)OCc1nnc(-c2ccc([N+](=O)[O-])cc2)o1 the Potency was “inactive”. N#Cc1ccc(C(=O)CSc2nnc(-c3ccc(C(F)(F)F)cn3)s2)cc1 was tested, and the Potency was inconclusive: 2 µM [inhibitor, partial curve, poor fit]. CC1(C)Cc2c(sc3[nH]c(=S)n(Cc4ccco4)c(=O)c23)CO1 was tested, and the Potency was inconclusive: 28.2 µM [inhibitor, single point]. O=C(Nc1cc(Cl)cc2c1-c1ccc(Cl)cc1C2O)C(Cl)Cl (configuration not stated) was tested, and the Potency was inconclusive: 12.6 µM [inhibitor, partial curve]. For CN1C(=O)C(O)(C2COC(C)(C)CC2=O)c2cc(Br)ccc21 (configuration not stated), the Potency was inconclusive: 11.2 µM [inhibitor, partial curve, poor fit]. For CC(=O)NC(c1ccco1)c1cc(Cl)c2cccnc2c1O (configuration not stated), the Potency was inconclusive: 25.1 µM [inhibitor, single point]. C=CC(=O)N1C/C(=C/c2ccc(F)cc2)C(=O)/C(=C\c2ccc(F)cc2)C1 was tested, and the Potency was inconclusive: 0.562 µM [inhibitor, full curve, poor fit]. CC(=O)Nc1cccc(-c2cc(NC(C)=O)c3ncc(-c4cccc(C(F)(F)F)c4)n3c2)c1 was tested, and the Potency was inconclusive: 20 µM [inhibitor, single point]. COc1cc(C(=O)N/N=C/c2ccc(OC)c(CN3CCN(c4ccc(F)cc4)CC3)c2)ccc1O was tested, and the Potency was “inactive”. For S=c1[nH]nc(-c2cccnc2)n1/N=C/C(Cl)=C\c1ccccc1, the Potency was inconclusive: 14.1 µM [inhibitor, partial curve, poor fit]. In the case of COc1cccc(NC(=O)Cn2nc(Cc3cccnc3)c3ccccc3c2=O)c1, the Potency is reported as “inactive”. In the case of COc1cc(C(=O)Nc2sc3c(c2C#N)CCN(C(C)=O)C3)cc(OC)c1OC, the Potency is reported as inconclusive: 22.4 µM [inhibitor, partial curve, poor fit]. With C/C(=N\NC(=O)c1c(Cl)c(C)nn1C)c1ccc(NC(=O)C2CCC2)cc1 the Potency was inconclusive: 1.41 µM [inhibitor, full curve, poor fit]. In the case of C[n+]1ccc(/C=C/c2c[nH]c3ccc(F)cc23)cc1, the Potency is reported as active: 8.91 µM. With COc1cc(C2Nc3cccc4cccc(c34)N2)ccc1OC(C)=O the Potency was “inactive”. In the case of C/C=C/C(=O)[C@@H](C)[C@@H](/C=C/C[Si](C)(C)C)c1ccccc1, the Potency is reported as “inactive”. In the case of Cc1ccc(-c2n[nH]c3c2C(c2ccc(C(C)(C)C)cc2)NC3=O)cc1 (configuration not stated), the Potency is reported as “inactive”. In the case of Cc1cc(C)cc(Nc2ncnc3nc[nH]c23)c1, the Potency is reported as inconclusive: 35.5 µM [inhibitor, single point]. For O=C(O)c1ccc(N/N=C/c2cc3cc4c(cc3nc2Cl)OCCO4)cc1, the Potency was inconclusive: 15.8 µM [inhibitor, single point]. With COc1ccc(C2C=C(c3ccccc3)Nc3nc(NC(=O)c4cccc([N+](=O)[O-])c4)nn32)cc1 (configuration not stated) the Potency was “inactive”. C=CCn1c(SCC(=O)c2[nH]c(C)c(C(=O)OCC)c2C)nc2scc(-c3ccc(OC)c(OC)c3)c2c1=O was tested, and the Potency was inconclusive: 6.31 µM [inhibitor, single point]. In the case of O=C(COc1ccccc1)N1CCN(c2nnc(-c3ccccc3)c3ccccc23)CC1, the Potency is reported as “inactive”. COc1cc2c(c(OC)c1OC)-c1ccc(N(C)CC(OC)OC)c(=O)cc1[C@@H](NC(C)=O)CC2 was tested, and the Potency was inconclusive: 0.631 µM [inhibitor, full curve, poor fit]. With COc1ccc(OC)c(-c2nnc3n2N=C(c2ccc(OC(F)F)c(OCC4CC4)c2)CS3)c1 the Potency was inconclusive: 2.51 µM [inhibitor, partial curve, poor fit]. For CCC1CCCCN1CC(=O)Nc1cc(C)nn1-c1nc(C)cc(C)n1 (configuration not stated), the Potency was inconclusive: 12.6 µM [inhibitor, single point]. In the case of c1ccc2c(c1)Cc1cc3ccccc3nc1-2, the Potency is reported as inconclusive: 2.51 µM [inhibitor, full curve, poor fit]. With CCc1ccc2c(c1)/C(=C/C(=O)c1cccs1)C(=O)N2 the Potency was inconclusive: 35.5 µM [inhibitor, single point]. O=[N+]([O-])c1ccc(-c2nc(Nc3cccc(O)c3)c3ccccc3n2)cc1 was tested, and the Potency was inconclusive: 35.5 µM [inhibitor, single point]. For COc1ccc(/C=C2\N=C(SC)N(c3ccccc3OC)C2=O)cc1, the Potency was “inactive”. In the case of COc1ccc(-c2onc(C)c2C)cc1S(=O)(=O)NCc1ccc(C)o1, the Potency is reported as inconclusive: 2.24 µM [inhibitor, full curve, poor fit]. With COc1ccccc1CNC(=O)C1CCCN(c2nnc(C)c3c(C)n(-c4ccccc4)nc23)C1 (configuration not stated) the Potency was inconclusive: 20 µM [inhibitor, single point]. In the case of COc1ccccc1C(CNC(=O)c1cccc(S(=O)(=O)Nc2ccc(F)cc2)c1)N1CCCC1 (configuration not stated), the Potency is reported as inconclusive: 25.1 µM [inhibitor, single point]. For Cc1cccc(/C=N/NC(=O)c2ccc(NC(=O)c3ccc(Cl)cc3)cc2)n1, the Potency was inconclusive: 15.8 µM [inhibitor, single point].
